{
  "source": "PubChem BioAssay (NCI)",
  "system": "MOLT-4 leukemia",
  "test": "NCI-60 one-dose screen, 48 h (100 = growth as untreated, 0 = no growth, -100 = all killed)",
  "note": "Where a structure was tested more than once in an assay, its records may differ in their call.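 How to read the values: 0–100, growth inhibition (40 = 60% inhibited); 0, no net growth; -100 to 0, cell death (-40 = 40% of starting cells died; -100 = all dead).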 For part of its entries the source gives two or more results. This is not the full list of results. An entry can have further records. The calls were made as follows: active = growth percent below 10; inactive = the rest. The screen tested this drug many times, at the concentration stated with the values; each value is one run. Signs of the kind (2×) say how often a value occurs here.",
  "data": [
    {"molecule": "COc1cccc2c1C(=O)c1c(O)c3c(c(O)c1C2=O)C[C@@](O)(C(=O)CO)C[C@@H]3OC1CC(N)C(O)C(C)O1", "note": "(stereo not given in full)", "values": [
      {"measurement": "growth", "setting": "0.25 µM, runs of 2018", "result": "inactive: 17.1, 19.5, 15.5, 14.2 (3×), 11.9 (2×), 13.4 (2×), 12, 10.4, 14.5, 13.3, 10.6 (2×), 17.2 (2×), 12.2 (3×), 18.8, 16.6, 14.9, 16.3, 23.3, 13.5, 16.2, 16.4, 21.5, 15.2, 16, 11.7, 10.7 (2×), 11.4 (2×), 13.9, 14.1, 12.6, 15.8, 12.7, 18.5, 26.8, 23.2% and active: 9.34, 9.55, 8.48, 4.52, 9.94, 6.99, 7.86%"},
      {"measurement": "growth", "setting": "0.25 µM, runs of 2019", "result": "inactive: 16.5, 11.4, 11.9, 10.6 (3×), 10.3, 10.7, 16, 10.1, 18.4, 27.1, 17, 14.5, 13.5, 21.1, 13.6 (2×), 17.8, 12.9 (2×), 14.8, 16.2 (2×), 14.2, 15.6, 15.2, 14.6, 13.9% and active: 6.17, 1.97, 9.01, 5.34, 6.93, 6.25, 9.93, 8.3, 9.38, 6.64, 9.88, 7.31, 9.31%"},
      {"measurement": "growth", "setting": "0.25 µM, runs of 2020", "result": "active: -3.22, 8.51, 9.06, 6.69, 9.16, 7.23% and inactive: 10.8, 12.4, 10.7, 12.5, 13, 11.9, 14.8, 15.7, 17.1, 18.6, 12.6, 17, 18.9, 13.6, 13.1, 16.5%"},
      {"measurement": "growth", "setting": "0.25 µM, runs of 2021", "result": "active: 7.6 (2×), -1.82, 8.75, 7.98, 5.44, 7.56, 8.6, 5.41, 6.02, 6.59, 5.94, 2.3, 8.67, 8.66, 5.48, 8.24, 8.92, 5.19, 8.71% and inactive: 18.1 (2×), 13.3, 15.3 (3×), 11.4, 20.4, 17.9, 14.3, 15.6, 15.8, 11.8, 12.4 (2×), 10.7, 16.6, 15.1 (2×), 17.4, 12.6, 13.2, 10.8 (2×), 13, 12.2, 12.7, 11.5, 12.5, 15.5%"},
      {"measurement": "growth", "setting": "0.25 µM, runs of 2022", "result": "inactive: 20.2 (2×), 24.8, 21.8 (2×), 20.4, 15.1, 36.3, 28.2, 28.4, 21.1, 14.6, 21.3, 16.1, 25.9% and active: -12.4, -3.59, -5.33, 4.11, 1, 8.43, 6.63, 7.98, 6.21%"},
      {"measurement": "growth", "setting": "25 µM, runs of 1991", "result": "active: -29.3, -15.7, -9.63, -8.48, -29.1, -42.9, -37.9, -19.9, -39.8, -34.5, -19.5, -24, -5.22, -8.58, 0.936, -30.7, -26% and inactive: 10.8%"},
      {"measurement": "growth", "setting": "25 µM, runs of 1992", "result": "active: -6.96, -33.5 (3×), -23.8, -44.8, -51.5, -18.9, -53.3, -32.7, -44.5, -39.7 (2×), -56.1, -54.7, -40.4, -32.2, -23.1, -31.5 (2×), -25.4, -34.9, -37.9 (2×), -34.3, -14, -42.4 (3×), -28.6, -7.66, -24.1, -31.8 (2×), 0.395, -18.4, -35.5 (2×), -16.7, -35.7, -34.7, 1.17, 1.57, -10, 4.12, -24.8, -20.9, -41.4, -40.1, -22.7, -27.3, -29, -16.2, 9.77, -43.3, -36.8, -40.8, -44.9, -0.338, -16.6, -44.7, -42.1, -47, -34.5, -28.8, -19.5, -41.2, -8.7, -20.5, -21.8, -35.8, -40.2, -40.5, -39.1, -43.6 (2×), -27.2, -11.4, -32, -63.1, 3.1, -25 (2×), -50.1, -38.7 (2×), -57.6, -51.6, -57.4, -38.8, 1.01, -44, -32.9, -22.6, -42.5, 2.96, -55.6, -30.1, -33.9, -25.5, -46.3, -36.2, -38.3 (2×), -10.7, -45.8, -49.7, -100, -23.4, 7.28, -47.9, -24.4, -28.5 (2×), -6.8, -12.4, -45.2, -27.1% and inactive: 11.6%, 17.7%"},
      {"measurement": "growth", "setting": "25 µM, runs of 1993", "result": "active: -34.5, -26.2, -27.6 (2×), -29.9, -52.4, -48.4, -16.9, 1.89, -40.6, -31.7, 0.995, -44.8 (2×), -26.9, -40.2, -23.1, 5.51, -39.1, -18.9, -27.8 (2×), -20, -49.8, -27.1, -47.3, 0.941, -41.5, -47, 9.09, -15.5, -50.3, -47.7, -48.8, 9.92, -25.9, -45.8, -38.6, -0.107, -0.839% and inactive: 16.6, 11.3, 14, 28.3, 44.2, 21.3, 33.2%"},
      {"measurement": "growth", "setting": "25 µM, runs of 1994", "result": "active: -57.3, -51.9, -60.1, -0.183, 5.15, -29.8, -45.1, -20.5, -10.7, -41.4, -27.4, -86.8, -34.1, 0.462, -26.4, -47.4, -27.3, -49.5, -27.9, -34.6, -30.6, -8.58, -4.2, -56.3, -8.27, -28.3, 1.51, -27, -52.5, -44% and inactive: 32.5%, 20.5%"},
      {"measurement": "growth", "setting": "25 µM, runs of 1995", "result": "active: -36.8, 5.67, 2.9, -31.5, -24.6, -9.85, -24.2, -30.4, -50, -8.77, -18.5 (2×), -14.4, -11.4, -20, -24.7, -16.7, -17.9, -45.2, -30.6, 8.81, -11.6, -28.5, -40.6, -38.8, -2.24, -25.7, -3.94, -41.6, -38.4, 1.43, -44.1, -49.8, -29.2, -35.3, -45.6, -59.1, -42.8%"},
      {"measurement": "growth", "setting": "25 µM, runs of 1996", "result": "active: -42.3 (2×), -21.1, -41.4, -0.152, -59.8, -31.3, 1.96, -43.5, -33.5, -47.1, -31.9 (2×), -44.4, -89.1, -42.7, -41.3, -49.4, 1.56, -28, -37.3, -24.8, -44.6, -38.3, -32.6, -9.17, -33.7, -37, -23.5, 0.2, -67.8, -52.1, -28.9, -12, -52.8, 7.96, -15.2, -32.5, -31.5, -35.8, -45.9, -24.2, -69.4, -48.2, -29.3% and inactive: 97.6, 13.2, 44.6, 11.9%"},
      {"measurement": "growth", "setting": "25 µM, runs of 1997", "result": "active: -38.8, -30.3, -18.6, -33.5, -24.8, -7.39, -51.9, -48.4, -44.1, -0.974, -19.4, -26.6, -36.2, -55.9, -11.4, 4.47, -58.5, 5.09, -34.3, 2.55, -5.71, -47.9, -5.42, -4.98, -39, 6.58, -8.04, -20.9, 1.84, -46, -33.1, -29.2, -40.1, -28% and inactive: 15.2, 14.1, 15.1, 12.9, 59.4%"},
      {"measurement": "growth", "setting": "25 µM, runs of 1998", "result": "active: -7.6, -15.2, -20, -7.74, -16, -51.6, -40.7, -53.6, -88.3, -5.95, 1.58, -64.1, 0.496, -30.6, -14.4, -9.22, 0.727, -9.35, -86.5, -35.3, -48.4, -62.5, -44% and inactive: 17%, 87.1%"},
      {"measurement": "growth", "setting": "25 µM, runs of 1999", "result": "active: -29.3, -1.61, -32.6, 3.78, -17.4, -56.2, 3.44, -32.5, -62.4, 5.32, 6.52, -92.6, 4.03% and inactive: 22.4%, 10.3%, 10.8%"},
      {"measurement": "growth", "setting": "25 µM, runs of 2000", "result": "active: -100, 6.87, 8.29, 6.16%"}
    ]}
  ]
}
